Laboratory results reported in the antibiotic and cytotoxicity screens of Wong et al. (2023).
The list shows a part of the results.

Experiments:
HSkMC = human skeletal muscle cells; assay: cytotoxicity call (relative viability < 0.9); conditions: 10 µM
HepG2 = assay: cytotoxicity call (relative viability < 0.9); conditions: 10 µM
S. aureus RN4220 = assay: growth inhibition call (relative growth <= 0.2); conditions: 50 µM

Structure (SMILES)	cytotoxicity call (HSkMC)	cytotoxicity call (HepG2)	growth inhibition call (S. aureus RN4220)
C[C@H]1CCCCO[C@@H](CN(C)C(=O)Cc2ccccc2)[C@@H](C)CN([C@@H](C)CO)C(=O)c2cc(NS(=O)(=O)c3cccs3)ccc2O1	inactive	inactive	inactive
C[C@H]1CCCCO[C@H](CN(C)CC2CCCCC2)[C@@H](C)CN([C@@H](C)CO)C(=O)c2cc(NC(=O)Nc3ccccc3)ccc2O1	inactive	inactive	inactive
C[C@H](CO)N1C[C@H](C)[C@@H](CN(C)Cc2ccc(C(F)(F)F)cc2)Oc2ccc(NC(=O)Nc3ccc(C(F)(F)F)cc3)cc2CC1=O	active	active	inactive
COc1ccc(S(=O)(=O)N(C)C[C@H]2Oc3ccc(NS(=O)(=O)c4cn(C)cn4)cc3C(=O)N([C@H](C)CO)C[C@@H]2C)cc1	inactive	inactive	inactive
C[C@H]1CN([C@@H](C)CO)C(=O)c2cc(NC(=O)Cc3ccccc3)ccc2O[C@@H]1CN(C)S(C)(=O)=O	inactive	inactive	inactive
N=C(N)N	inactive	inactive	inactive
C[C@H](CO)N1C[C@H](C)[C@H](CN(C)Cc2ccc(C(F)(F)F)cc2)Oc2ccc(NC(=O)NC3CCCCC3)cc2C1=O	inactive	inactive	inactive
CN(C)CCCNC(=O)C[C@H]1CC[C@H]2[C@H](COc3ccc(NC(=O)c4ccc5c(c4)OCO5)cc3C(=O)N2C)O1	inactive	inactive	inactive
Cc1cccc(NC(=O)Nc2ccc3c(c2)C(=O)N(C)[C@@H]2CC[C@H](CC(=O)NCc4ccccc4Cl)O[C@@H]2CO3)c1	inactive	inactive	inactive
C[C@H]1CCCCO[C@@H](CN(C)C(=O)c2ccccc2)[C@@H](C)CN([C@@H](C)CO)C(=O)c2cc(NC(=O)Nc3ccc(C(F)(F)F)cc3)ccc2O1	inactive	inactive	inactive
C[C@@H]1CN([C@@H](C)CO)S(=O)(=O)c2ccc(-c3ccccc3F)cc2O[C@@H]1CN(C)S(C)(=O)=O	inactive	inactive	inactive
CNc1nc(OCC#N)nc(N2CCCCC2)n1	inactive	inactive	inactive
C[C@@H]1CN([C@H](C)CO)C(=O)c2cc(NC(=O)c3ccncc3)ccc2O[C@@H]1CN(C)C(=O)Nc1ccc2c(c1)OCO2	inactive	inactive	inactive
Cc1noc(C)c1S(=O)(=O)N(C)C[C@H]1OCCCC[C@H](C)Oc2ccc(NC(=O)Nc3ccc(F)cc3)cc2C(=O)N([C@@H](C)CO)C[C@@H]1C	inactive	inactive	inactive
CCS(=O)(=O)Nc1ccc2c(c1)C(=O)N(C)[C@H]1CC[C@@H](CC(=O)N[C@@H]3CCN(Cc4ccccc4)C3)O[C@@H]1CO2	inactive	inactive	inactive
C[C@H]1CN([C@@H](C)CO)C(=O)c2cccc(NC(=O)C3CC3)c2O[C@@H]1CN(C)S(=O)(=O)c1cccs1	inactive	inactive	inactive
C[C@H]1CN([C@@H](C)CO)C(=O)CCCn2nncc2CO[C@H]1CN(C)S(=O)(=O)c1ccc(-n2cccn2)cc1	inactive	inactive	inactive
O=C(Cn1nncc1COc1ccc2ccccc2c1)NS(=O)(=O)c1ccccc1OC(F)(F)F	inactive	inactive	inactive
Cc1ccc(S(=O)(=O)Nc2ccc3c(c2)C(=O)N([C@@H](C)CO)C[C@H](C)[C@@H](CN(C)C(=O)c2ccccc2)OCCCC[C@H](C)O3)cc1	inactive	inactive	inactive
C[C@H]1CN([C@@H](C)CO)C(=O)Cc2cc(NS(=O)(=O)c3ccccc3)ccc2O[C@@H]1CN(C)Cc1ccc(Oc2ccccc2)cc1	active	inactive	inactive
COc1cc(C)c(C(=O)O)c(O)c1	inactive	inactive	inactive
C[C@H]1CN([C@@H](C)CO)C(=O)c2cc(-c3cccnc3)cnc2O[C@@H]1CN(C)Cc1ccc(Oc2ccccc2)cc1	inactive	inactive	inactive
Cc1noc(C)c1NC(=O)N[C@@H]1CC[C@H](CC(=O)N2CCN(C)CC2)O[C@@H]1CO	inactive	inactive	inactive
C[C@H]1CCCCO[C@@H](CN(C)Cc2ccc(C(=O)O)cc2)[C@@H](C)CN([C@@H](C)CO)C(=O)c2cc(NC(=O)Nc3ccc(F)cc3)ccc2O1	inactive	inactive	inactive
O=C(c1cccnc1)N1C[C@@H]2[C@H](c3ccccc31)[C@@H](CO)N2C(=O)CN1CCOCC1	inactive	inactive	inactive
O=C(C[C@H]1C[C@H]2c3cc(NC(=O)Nc4ccc(C(F)(F)F)cc4)ccc3O[C@H]2[C@@H](CO)O1)NCCc1ccccc1	inactive	inactive	inactive
C[C@H](CO)N1C[C@H](C)[C@@H](CN(C)S(=O)(=O)c2ccccc2)Oc2cc(C#Cc3ccncc3)ccc2S1(=O)=O	inactive	active	inactive

Structure (SMILES)	cytotoxicity call (HSkMC)	cytotoxicity call (HepG2)	growth inhibition call (S. aureus RN4220)
C[C@H](CO)N1C[C@H](C)[C@H](CN(C)S(=O)(=O)c2cn(C)cn2)Oc2ccc(NC(=O)CCCN(C)C)cc2C1=O	inactive	inactive	inactive
C[C@@H]1CN([C@H](C)CO)S(=O)(=O)c2ccc(C#CCC3CCCC3)cc2O[C@@H]1CN(C)C(=O)c1cnccn1	inactive	inactive	inactive
COc1ccccc1S(=O)(=O)N1C[C@@H](O)COC[C@H]2O[C@H](CC(=O)O)CC[C@@H]21	inactive	inactive	inactive
Cc1noc(C)c1S(=O)(=O)N(C)C[C@H]1OCc2cn(nn2)CCCC(=O)N([C@H](C)CO)C[C@H]1C	inactive	inactive	inactive
Cc1noc(C)c1NC(=O)N(C)C[C@@H]1Oc2ccc(NC(=O)Cn3cnnn3)cc2CC(=O)N([C@H](C)CO)C[C@H]1C	inactive	inactive	inactive
O=C(C[C@H]1C=C[C@H](NC(=O)c2cccnc2)[C@@H](CO)O1)NCc1ccncn1	inactive	inactive	inactive
C[C@H]1CCCCO[C@H](CN(C)C(=O)NC2CCCCC2)[C@@H](C)CN([C@@H](C)CO)C(=O)c2cc(NS(=O)(=O)c3ccc(F)cc3)ccc2O1	inactive	inactive	inactive
COCC(=O)N(C)C[C@H]1Oc2cc(-c3ccc(C#N)cc3)ccc2S(=O)(=O)N([C@H](C)CO)C[C@@H]1C	inactive	inactive	inactive
COc1ccc(C#Cc2ccc3c(c2)[C@]2(C(=O)N3)[C@H](c3ccc(OCCO)cc3)N3[C@H](c4ccccc4)[C@H](c4ccccc4)OC(=O)[C@H]3[C@@H]2C(=O)N2CCc3cc(OC)c(OC)cc3C2)cc1	inactive	inactive	inactive
COCCOC(=O)N1C(=O)[C@@]2(c3cc(C#Cc4ccc(OC)cc4)ccc31)[C@H](c1ccc(OCCO)cc1)N1[C@H](c3ccccc3)[C@H](c3ccccc3)OC(=O)[C@H]1[C@@H]2C(N)=O	inactive	inactive	inactive
CC(=O)C1(O)CCC2C3CC(C)C4=CC(=O)C=CC4(C)C3(F)C(O)CC21C (configuration not stated)	inactive	inactive	inactive
COc1cccc(C#Cc2ccc3c(c2)O[C@@H](CN(C)C(C)=O)[C@@H](C)CN([C@@H](C)CO)S3(=O)=O)c1	inactive	active	inactive
COc1ccccc1S(=O)(=O)N1C[C@H](O)COC[C@@H]2O[C@H](CC(=O)O)CC[C@H]21	inactive	inactive	inactive
C[C@@H]1CN([C@@H](C)CO)C(=O)CCCn2cc(nn2)CO[C@H]1CN(C)C(=O)Nc1ccc(C(C)(C)C)cc1	inactive	inactive	inactive
C[C@@H]1CN([C@@H](C)CO)C(=O)c2cc(NC(=O)C3CC3)ccc2O[C@H]1CN(C)Cc1ccc(-c2ccccc2)cc1	inactive	inactive	inactive
COc1ccccc1C#Cc1cnc2c(c1)C(=O)N([C@@H](C)CO)C[C@@H](C)[C@@H](CN(C)S(=O)(=O)c1cn(C)cn1)O2	inactive	inactive	inactive
C[C@H](CO)N1C[C@H](C)[C@H](CN(C)C(=O)Nc2cccc3ccccc23)OCCCC[C@H](C)Oc2ccc(NS(=O)(=O)c3cn(C)cn3)cc2C1=O	inactive	inactive	inactive
O=C(N[C@H]1C=C[C@H](CC(=O)N2CCOCC2)O[C@H]1CO)c1ccc2c(c1)OCO2	inactive	inactive	inactive
C[C@H](CO)N1C[C@H](C)[C@@H](CN(C)S(=O)(=O)c2cccs2)Oc2ccc(NS(C)(=O)=O)cc2CC1=O	inactive	inactive	inactive
COc1ccc(S(=O)(=O)Nc2ccc3c(c2)C(=O)N([C@@H](C)CO)C[C@H](C)[C@@H](CN(C)S(=O)(=O)c2ccc(OC)cc2)O3)cc1	inactive	inactive	inactive
COc1ccc(S(=O)(=O)Nc2ccc3c(c2)C(=O)N([C@@H](C)CO)C[C@H](C)[C@H](CN(C)Cc2ccc(C(F)(F)F)cc2)OCCCC[C@H](C)O3)cc1	active	active	inactive
C[C@H]1CN([C@@H](C)CO)C(=O)c2cc(C#CCN(C)C)cnc2O[C@H]1CN(C)C(=O)Nc1ccccc1F	inactive	inactive	inactive
C[C@@H]1CN([C@@H](C)CO)C(=O)c2cc(NC(=O)NC3CCCCC3)ccc2O[C@@H](C)CCCCO[C@H]1CN(C)C(=O)c1ccccc1	inactive	inactive	inactive
C[C@H](CO)N1C[C@H](C)[C@@H](CN(C)Cc2cncnc2)Oc2cc(C3=CCCCC3)ccc2S1(=O)=O	inactive	inactive	inactive
O[C@H]1CCCC[C@@H]1O	inactive	inactive	inactive
CN1CCN(C(=O)C[C@@H]2CC[C@H]3[C@@H](COC[C@@H](O)CN3CC3CCCC3)O2)CC1	inactive	inactive	inactive
COc1ccc(/C=C/CN(C/C=C/c2ccc(OC)cc2)CCCNS(=O)(=O)c2cccc3cnccc23)cc1	inactive	inactive	inactive
